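GI50: concentration for 50% inhibition of growth. At the TGI there is no net growth.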
Columns and labels:
Assay in all cases: DTP human tumour cell line panel, 384-well format; in the data active = GI50 below about 0.43 µM; inactive = the rest
[1] = test system: 786-0 renal
[2] = test system: A498 renal
[3] = test system: A549 NSCLC
[4] = test system: ACHN renal
[5] = test system: BT-549 breast
[6] = test system: CAKI-1 renal
[7] = test system: CCRF-CEM leukemia
[8] = test system: COLO 205 colon
[9] = test system: DU-145 prostate
[10] = test system: HCC-2998 colon
[11] = test system: HCT-116 colon
[12] = test system: HCT-15 colon
[13] = test system: HL-60(TB) leukemia
[14] = test system: HOP-62 NSCLC
[15] = test system: HOP-92 NSCLC
[16] = test system: HT29 colon
[17] = test system: IGROV1 ovarian
[18] = test system: K-562 leukemia
[19] = test system: KM12 colon
[20] = test system: LOX IMVI melanoma
[21] = test system: M14 melanoma
[22] = test system: MALME-3M melanoma
[23] = test system: MCF7 breast
[24] = test system: MDA-MB-231 breast
[25] = test system: MDA-MB-435 melanoma
[26] = test system: MDA-MB-468 breast
[27] = test system: MOLT-4 leukemia
[28] = test system: NCI-H226 lung
[29] = test system: NCI-H23 lung
[30] = test system: NCI-H322M lung
[31] = test system: NCI-H460 NSCLC
[32] = test system: NCI-H522 lung
[33] = test system: NCI/ADR-RES ovarian
[34] = test system: OVCAR-3 ovarian
[35] = test system: OVCAR-4 ovarian
[36] = test system: OVCAR-5 ovarian
[37] = test system: OVCAR-8 ovarian
[38] = test system: PC-3 prostate
[39] = test system: RPMI-8226 leukemia
[40] = test system: RXF 393 renal
[41] = test system: SF-268 CNS
[42] = test system: SF-295 CNS
[43] = test system: SF-539 CNS
[44] = test system: SK-MEL-2 melanoma
[45] = test system: SK-MEL-28 melanoma
[46] = test system: SK-MEL-5 melanoma
[47] = test system: SK-OV-3 ovarian
[48] = test system: SN12C renal
[49] = test system: SNB-19 CNS
[50] = test system: SR leukemia
[51] = test system: SW-620 colon
[52] = test system: T-47D breast
[53] = test system: TK-10 renal
[54] = test system: U251 glioblastoma
[55] = test system: UACC-257 melanoma
[56] = test system: UACC-62 melanoma
[57] = test system: UO-31 renal

CN[C@@H]1C[C@H]2O[C@@](C)([C@@H]1OC)n1c3ccccc3c3c4c(c5c6ccccc6n2c5c31)C(=O)NC4
active: GI50 [1] < 10 nM | GI50 [2] < 10 nM | GI50 [3] < 10 nM | GI50 [4] < 10 nM | GI50 [5] < 10 nM | GI50 [6] < 10 nM | GI50 [7] < 10 nM | GI50 [8] < 10 nM | GI50 [9] < 10 nM | GI50 [10] < 10 nM | GI50 [11] < 10 nM | GI50 [12] < 10 nM | GI50 [13] < 10 nM | GI50 [14] < 10 nM | GI50 [15] < 10 nM | GI50 [16] 10.2 nM | GI50 [17] < 10 nM | GI50 [18] 11.3 nM | GI50 [19] < 10 nM | GI50 [20] < 10 nM | GI50 [21] < 10 nM | GI50 [22] < 10 nM | GI50 [23] < 10 nM | GI50 [24] < 10 nM | GI50 [25] < 10 nM | GI50 [26] < 10 nM | GI50 [27] < 10 nM | GI50 [28] < 10 nM | GI50 [29] < 10 nM | GI50 [30] < 10 nM | GI50 [31] < 10 nM | GI50 [32] < 10 nM | GI50 [33] < 10 nM | GI50 [34] < 10 nM | GI50 [35] < 10 nM | GI50 [36] < 10 nM | GI50 [37] < 10 nM | GI50 [38] < 10 nM | GI50 [39] < 10 nM | GI50 [40] < 10 nM | GI50 [41] < 10 nM | GI50 [42] < 10 nM | GI50 [43] < 10 nM | GI50 [44] < 10 nM | GI50 [45] < 10 nM | GI50 [46] < 10 nM | GI50 [47] < 10 nM | GI50 [48] < 10 nM | GI50 [49] < 10 nM | GI50 [50] < 10 nM | GI50 [51] < 10 nM | GI50 [52] 15 nM | GI50 [53] < 10 nM | GI50 [54] < 10 nM | GI50 [55] < 10 nM | GI50 [56] < 10 nM | GI50 [57] < 10 nM
45.8 nM: TGI [28]
68.3 nM: TGI [34]
26.3 nM: TGI [49]
16.5 nM: TGI [37]
104 nM: TGI [31]
19.9 nM: TGI [30]
36.1 nM: TGI [16]
177 nM: TGI [55]
16 nM: TGI [10]
185 nM: TGI [18]
18.1 nM: TGI [54]
52 nM: TGI [45]
< 10 nM: TGI [1] | TGI [2] | TGI [5] | TGI [6] | TGI [7] | TGI [8] | TGI [14] | TGI [15] | TGI [17] | TGI [20] | TGI [22] | TGI [24] | TGI [26] | TGI [27] | TGI [29] | TGI [32] | TGI [33] | TGI [35] | TGI [36] | TGI [39] | TGI [40] | TGI [41] | TGI [42] | TGI [43] | TGI [44] | TGI [47] | TGI [50] | TGI [53] | TGI [57]
88.1 nM: TGI [52]
46.8 nM: TGI [9]
11.4 nM: TGI [13]
114 nM: TGI [3] | TGI [46]
15.2 nM: TGI [48]
18.9 nM: TGI [19]
30.4 nM: TGI [12]
18.6 nM: TGI [11]
117 nM: TGI [21]
15.5 nM: TGI [51]
123 nM: TGI [23]
166 nM: TGI [25]
103 nM: TGI [38]
65.4 nM: TGI [56]
333 nM: TGI [4]

Reference: PubChem BioAssay (NCI)
